Test results as given in article PMC11603075 (Communications Biology, 2024).

Experiments:
KDM5D = experiment: MALDI–TOF MS demethylation/+16 Da assay, KDM5D; format: biochemical, human; details: 90 min
From the text: (§1) Fig. 2 Histone H2a fragments are KDM5 and KDM4 substrates. […] See Supplementary Table 6 and Supplementary Fig. 2 for assay conditions and quantification, respectively. […] 0-minute MS spectrum in black, 60/90-minute spectrum in red.
(§2) MS-based screening assays with peptides and calf thymus histones were as reported; see Supplementary Table 6 for conditions. Time course assays were based on reported procedures. In brief, equal volumes of the enzyme and substrate solutions were combined to initiate the reaction; 10 µL of 2% (v/v) formic acid (HCOOH) in ddH2O or 100% methanol was added to 10 µL of the reaction mixture to quench reactions at different time points. Unless otherwise stated, time course assays were carried out in triplicate. In some cases, LC–MS was used instead of MALDI-TOF MS to avoid a MALDI matrix induced artefact with the hydroxylated product (Supplementary Fig. 16). […]
(§3) Supplementary Figure 2 Histone H2a peptide fragments are substrates of KDM4s and KDM5s.
(§4) 2 for representative corresponding MALDI–TOF MS traces. Bar graphs comparing % product format ion (+16 Da and demethylation) of H2a(1–20)R3me2a by (a) K DM5 A–D (after 90 minutes) and (b) KDM4A–E ( a ft er 60 minutes), analysed by MALDI– TOF MS. n = (a) 2, (b) 3 (independent assays). See Supplementary Table 6 for assay condit ions. See Figure S13 A 1 for a positive control.
(§5) (also on this page, place not known: formation KDM5A–D (after MALDI–TOF conditions. Figure S13A1 KDM4A KDM4B KDM4C KDM4D KDM4E 80% product formation KDM5A KDM5B KDM5C KDM5D % product formation) […]
(§6) [ E nz ym e] [Peptide] [2OG] [Ascorbate] [(NH4)2F e(S O4)2] [TCEP] Buffer pH7.5 Enzyme Cognate substrate (mM) (mM) (mM) (mM) (mM) (mM) [HE PE S]
(§7) Supplementary Table 6 Summary of MS assay conditions for substrate screening. These conditions enabled efficient turnover of established substrates. Reactions were carried out at 37 °C unless otherwise st ated. […]

KDM4A = experiment: MALDI–TOF MS demethylation/+16 Da assay, KDM4A; format: biochemical, human; details: 60 min
From the text: as §1, §2, §3, §4, §5, §6, §7

KDM4B = experiment: MALDI–TOF MS demethylation/+16 Da assay, KDM4B; format: biochemical, human; details: 60 min
From the text: as §1, §2, §3, §4, §5, §6, §7

KDM4C = experiment: MALDI–TOF MS demethylation/+16 Da assay, KDM4C; format: biochemical, human; details: 60 min
From the text: as §1, §2, §3, §4, §5, §6, §7

KDM4E = molecular target: T1, KDM4E (Homo sapiens, UniProt B2RXH2); experiment: MALDI–TOF MS demethylation/+16 Da assay, KDM4E; format: biochemical; details: 60 min
T1 construct: KDM4E1–337; made in house; host or cells: E. coli
T1 sequence (B2RXH2 1-337): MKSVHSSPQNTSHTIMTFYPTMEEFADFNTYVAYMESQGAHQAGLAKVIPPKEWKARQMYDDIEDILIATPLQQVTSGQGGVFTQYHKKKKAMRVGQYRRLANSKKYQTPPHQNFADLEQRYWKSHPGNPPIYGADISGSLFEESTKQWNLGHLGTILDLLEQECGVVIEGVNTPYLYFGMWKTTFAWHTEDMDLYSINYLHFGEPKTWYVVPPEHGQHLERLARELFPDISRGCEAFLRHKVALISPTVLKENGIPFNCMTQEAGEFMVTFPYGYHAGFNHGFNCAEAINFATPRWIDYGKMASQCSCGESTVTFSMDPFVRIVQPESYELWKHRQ
From the text: as §1, §2, §3, §4, §5, §6, §7

KDM4A1–359 = experiment: MALDI–TOF MS product formation, KDM4A1–359; format: biochemical, human; details: 1 µM enzyme, 10 µM peptide, 60 min
Method: Supplementary Figure 5 H2aR3me2a is a substrate of full length KDM4A. (a) Representative MALDI–T OF
MS (60 -minute incubation) (from top to bottom) K DM4A 1–1064, KDM4A1–35 9 and KDM4E1–337 w it h H 2 a( 1–
Representative data are shown from n = 3 (independent assays). Charge state of labelled ions: [MH]+. (b)
Bar graph comparing % product format ion of H2a(1 –20)R3me2a by KDM4A1–10 64, KDM4A1–359 and KDM4E1–
33 7, analysed by MALDI–TOF MS. n = 2/3 (independent assays). Conditions: 1 µM KDM4A1–359 and KDM4E1–
(NH4)2Fe(SO4)2, and 50 mM HEPES (pH 7.5), 1 mM TCEP, 0.02% (v/v) Triton-X . […]

- +16 Da mass shift (KDM4E; 2 µM KDM4E, 10 µM peptide, MALDI–TOF MS): A +16 Da mass shift occurs
- +16 Da (% product formation) (KDM4E; replicate 1): 46.4339%
- demethylation (% product formation) (KDM4E; replicate 1): 80.4205%
- +16 Da (% product formation) (KDM4E; replicate 2): 45.4666%
- demethylation (% product formation) (KDM4E; replicate 2): 73.9041%
- +16 Da (% product formation) (KDM4E; replicate 3): 46.4741%
- demethylation (% product formation) (KDM4E; replicate 3): 80.1859%
- RDM activity (KDM4E; KDM4E catalytic domain): highest RDM activity
Substance: Ac - SGR [ me 2a ] GKQ GGKAR AKAKT R SSR [H2a(1–20)R3me2a, H2a(1–20)R3me2a without a biotin tag]
- +16 Da (% product formation) (KDM5D; replicate 1): 0%
- demethylation (% product formation) (KDM5D; replicate 1): 45.629%
- +16 Da (% product formation) (KDM5D; replicate 2): 0%
- demethylation (% product formation) (KDM5D; replicate 2): 44.405%
- +16 Da (% product formation) (KDM4A; replicate 1): 0%
- demethylation (% product formation) (KDM4A; replicate 1): 34.0836%
- +16 Da (% product formation) (KDM4A; replicate 2): 0%
- demethylation (% product formation) (KDM4A; replicate 2): 37.6163%
- +16 Da (% product formation) (KDM4A; replicate 3): 0%
- demethylation (% product formation) (KDM4A; replicate 3): 37.264%
- +16 Da (% product formation) (KDM4B; replicate 1): 0%
- demethylation (% product formation) (KDM4B; replicate 1): 53.7655%
- +16 Da (% product formation) (KDM4B; replicate 2): 0%
- demethylation (% product formation) (KDM4B; replicate 2): 51.9581%
- +16 Da (% product formation) (KDM4B; replicate 3): 0%
- demethylation (% product formation) (KDM4B; replicate 3): 51.6457%
- RDM activity (KDM4B; KDM4B catalytic domain): RDM activity was also observed
- +16 Da (% product formation) (KDM4C; replicate 1): 0%
- demethylation (% product formation) (KDM4C; replicate 1): 12.3348%
- +16 Da (% product formation) (KDM4C; replicate 2): 0%
- demethylation (% product formation) (KDM4C; replicate 2): 13.2148%
- +16 Da (% product formation) (KDM4C; replicate 3): 0%
- demethylation (% product formation) (KDM4C; replicate 3): 16.3411%
- RDM activity (KDM4C; KDM4C catalytic domain): RDM activity was also observed
- % product formation (KDM4A1–359; replicate 1): 16.7473%
- % product formation (KDM4A1–359; replicate 2): 14.819%
